Measurements from publication PMC4336329 (PLoS ONE, 2015).
Screen size: about 310,000 compounds; about 14,000 (4.5%) showed an effect of 50% or more. Effects have a minus sign here. The list shows a part of the results.

These molecules were tested against human ether-à-go-go-related gene (hERG) potassium channel (human, UniProt Q12809) (assay: primary screen, population patch clamp on CHO cells stably expressing hERG).
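Further: peak tail current of the secondary pulse compared with the same well before compound.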

Sequence of human ether-à-go-go-related gene (hERG) potassium channel (Q12809 whole entry, looked up): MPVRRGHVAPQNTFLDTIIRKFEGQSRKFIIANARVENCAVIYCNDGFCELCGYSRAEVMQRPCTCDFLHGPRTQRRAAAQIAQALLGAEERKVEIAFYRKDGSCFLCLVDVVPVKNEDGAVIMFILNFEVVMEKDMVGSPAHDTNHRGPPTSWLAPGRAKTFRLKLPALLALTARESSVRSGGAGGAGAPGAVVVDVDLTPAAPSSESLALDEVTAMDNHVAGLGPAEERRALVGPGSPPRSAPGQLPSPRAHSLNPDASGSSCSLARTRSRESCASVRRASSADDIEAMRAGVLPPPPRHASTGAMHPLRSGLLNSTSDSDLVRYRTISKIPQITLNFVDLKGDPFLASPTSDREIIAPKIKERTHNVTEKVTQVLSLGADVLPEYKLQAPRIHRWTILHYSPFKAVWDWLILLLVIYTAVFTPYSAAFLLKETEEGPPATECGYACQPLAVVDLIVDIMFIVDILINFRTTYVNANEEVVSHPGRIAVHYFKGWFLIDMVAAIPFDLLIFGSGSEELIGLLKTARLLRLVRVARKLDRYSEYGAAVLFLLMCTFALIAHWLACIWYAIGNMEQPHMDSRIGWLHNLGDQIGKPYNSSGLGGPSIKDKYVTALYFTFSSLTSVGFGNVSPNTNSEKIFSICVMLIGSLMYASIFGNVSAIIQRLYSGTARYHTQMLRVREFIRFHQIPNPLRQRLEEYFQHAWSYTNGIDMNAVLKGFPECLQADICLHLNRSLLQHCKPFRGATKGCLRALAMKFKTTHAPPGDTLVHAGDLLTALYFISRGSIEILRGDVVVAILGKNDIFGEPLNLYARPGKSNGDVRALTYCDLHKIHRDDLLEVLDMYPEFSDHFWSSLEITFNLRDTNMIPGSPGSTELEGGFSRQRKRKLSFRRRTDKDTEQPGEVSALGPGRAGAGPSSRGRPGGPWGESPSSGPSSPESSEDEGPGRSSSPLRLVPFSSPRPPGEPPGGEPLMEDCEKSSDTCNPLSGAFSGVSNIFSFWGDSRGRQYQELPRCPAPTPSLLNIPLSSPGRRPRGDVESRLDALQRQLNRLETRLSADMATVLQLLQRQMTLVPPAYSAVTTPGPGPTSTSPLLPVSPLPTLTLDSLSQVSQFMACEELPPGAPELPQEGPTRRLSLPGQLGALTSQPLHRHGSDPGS

SMILES | hERG current change (%, negative = inhibition) at 10uM [%]
O=C(NCc1ccco1)c1ccccc1NC(=O)C1CC(=O)N(c2ccc(Cl)cc2)C1 (stereo not shown) | -78.4
Cc1cccc(Nc2nnc(SCC(=O)NC(=O)Nc3ccc4c(c3)OCCO4)s2)c1 | -19.9
COc1ccc(C(=O)OCc2nc(N)nc(Nc3ccccc3C)n2)cc1OC | 12.8
Cc1ccc(NC(=O)COC(=O)Cn2c(C)csc2=O)cc1C | 2.05
C1CCC(c2nn3c(-c4n[nH]c5c4CCC5)nnc3s2)CC1 | -26.7
CCN(CC(=O)Nc1c(F)cccc1F)C(=O)c1ccc(-n2cncn2)c([N+](=O)[O-])c1 | -1.72
CC(O)[C@H]1CC[C@H]2[C@@H]3CC[C@H]4C[C@@H](O)CC[C@]4(C)[C@H]3/C(=N/O)C[C@]12C (stereo partly shown) | 6.36
C=CCn1c(C)cc(C(=O)COc2ccc(S(=O)(=O)N3CCCC3)cc2[N+](=O)[O-])c1C | 5.51
COc1ccccc1N(C)S(=O)(=O)c1ccc(C(=O)NCCc2ccc(F)cc2)cc1 | -1.34
COC(=O)c1ccc(C(NC(=O)OCc2ccccc2)/C(F)=C/[C@@H](C)C(=O)NCc2ccc(OC)c(OC)c2)cc1 (stereo partly shown) | 0.852
CCN(CC)S(=O)(=O)c1ccc2oc(Nc3ccccc3)nc2c1 | 17.9
CCOc1ccc(NC(=O)CN(C)C(=O)c2cccnc2Sc2ccc(Cl)cc2)cc1OCC | -52.4
Cc1noc(C)c1COC(=O)CN(C)S(=O)(=O)c1ccc(Cl)cc1 | -14.4
CCOc1ccc(C(CCc2ccccc2)NC(=O)c2ccc(OC)c(OC)c2)cc1OCC (stereo not shown) | -15.9
Cc1ccc(S(=O)(=O)N(C)C)cc1N | 5.55
CCOC(=O)[C@H]1[C@H]2COc3ccc(C)cc3[C@@H]2N2C(=O)c3cc(F)c(F)cc3NC(=O)[C@@]12C | 9.28
COC(=O)CSc1nnc(COc2ccc3ccccc3c2)o1 | 19
CN(C)c1ccc(C2CC(=O)NC3=C2C(=O)CC(C)(C)C3)cc1 (stereo not shown) | 1.9
Cc1oc(-c2ccc3c(c2)OCCO3)cc1C(=O)O | -3.8
S=C(NC1CCCCC1)N1CCN(c2ccccn2)CC1 | -4.09
COCCNc1nc(C)cc(-c2cc(C(=O)NCc3ccccc3)on2)n1 | 1.21
COc1ccccc1CCN1CCCC(CN(C)C(=O)CCC(=O)N(C)C)C1 (stereo not shown) | 9.14
O=C1NC2(CCc3ccccc3C2)C(=O)N1CCOc1cccc(Cl)c1 (stereo not shown) | -51.1
O=C(Cc1cccc2ccccc12)NCCOc1ccccc1F | 11.3
CCOc1ccc(NC(=O)c2ccc(NC(=O)COC(=O)c3ccc(NC(=O)CC#N)cc3)cc2)cc1 | 4.72
Cn1c(=NC(=O)c2ccc(S(=O)(=O)N3CCCc4ccccc43)cc2)sc2cc(S(C)(=O)=O)ccc21 | 15.8

SMILES | hERG current change (%, negative = inhibition) at 10uM [%]
O=Cc1[nH]c2ccccc2c1N(C(=O)CCl)c1ccc([N+](=O)[O-])cc1 | -41.9
O=S(=O)(Nc1ccc(O)c(Sc2nc3ccccc3s2)c1)c1cccc2ccccc12 | 6.48
N#Cc1c(Nc2ccc(F)cc2)sc(C(=O)c2ccc(F)cc2)c1N | -7.68
Cc1ccc(-c2nnn(CC(=O)N(CCN3CCOCC3)C(C(=O)NC(C)(C)C)c3ccc(C)o3)n2)cc1 (stereo not shown) | -20.6
O=C(NCc1cccnc1)c1ccc(Cl)c(S(=O)(=O)N2CCCCCC2)c1 | -36.2
COc1ccccc1N1CCN(Cc2nc(N)nc(Nc3ccc(C)cc3)n2)CC1 | -50.3
CCCCN(CC)C(=O)Cn1cnc2sc(C)c(S(=O)(=O)N3CCC(C)CC3)c2c1=O | -45.9
COc1ccc(S(=O)(=O)N2CCOCC2)cc1NC(=O)CCc1cc(OC)c(OC)c(OC)c1 | -2.96
Cc1nc2ccccc2nc1CSc1nncs1 | 5.39
COc1ccc2nc(NC(=O)Nc3cccc4ccccc34)sc2c1 | 5.51
Cc1ccccc1CN1CCNCC1.Cl | 14
Cc1cc(OC(=O)c2ccccc2C)c([N+](=O)[O-])c(=O)[nH]1 | 9.67
CN(CC(=O)Nc1cccc(F)c1)C(=O)c1cc([N+](=O)[O-])ccc1N1CCOCC1 | -23.1
COCCNC(=O)CSc1nc2cc(OC)c(OC)cc2c(=O)n1Cc1ccc(OC)cc1 | -6.36
Cc1ccc(SCC(=O)Nc2ccc(F)cc2[N+](=O)[O-])cc1C | 11.7
Cc1cccc(OCC(=O)N2CCCc3ccccc32)c1 | 8.85
Cc1ccccc1CN1C[C@@H]2C[C@@H](c3cn[nH]c3-c3ccccc3)N3CCC[C@@]23C1=O | -5.95
CCNC(=S)N(Cc1ccco1)Cc1cc2cc(OCC)ccc2[nH]c1=O | 0.36
c1ccc2c(c1)CCCN2c1nc(N2CCOCC2)nc(N2CCOCC2)n1 | -6.93
Cc1cc(OCc2cccc(S(=O)(=O)N3CCOCC3)c2)ccc1Cl | -9.12
CC(Sc1ncc(C(F)(F)F)cc1Cl)C(=O)NC(N)=O (stereo not shown) | 0.58
CCc1cccc(CC)c1NC(=O)C1SC(=Nc2ccccc2C)C(c2nc3ccccc3s2)=C1N (stereo not shown) | 29.1
O=S(=O)(c1cccs1)N1CCN(c2ccccc2)CC1 | 15.5
COc1ccc(Br)cc1C(=O)N/N=C/c1cccnc1 | -8.72
CCCCOc1ccc(CSC(=N)N)cc1[N+](=O)[O-].Cl | -64.1
COc1ccc(CNC(=O)CC2(CC(=O)O)CCCCC2)cc1 | 15.8
